The assay is described as follows: Primary qHTS for Identification of Small Molecule Activators of Huntingtin-Antisense Promoter Activity. Also: nearly all actives have a fitted effect of over 55% in size. To be noted: HEK293 HTT-AS promoter firefly luciferase reporter, 24 h. The method in brief: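 Firefly luciferase readout (Dual-Glo, 10 min RT) after 24 h, 37 °C compound exposure (final up to 57.5 uM) of HEK293 reporter cells cultured 24 h beforehand; PTC124 at 50 uM final as control inhibitor; activity scaled vehicle 0%, zero RLU -100%.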

The mark [1] stands for this setting: at 57.5 µM (top of the series) unless noted.

Values joined by “and” are separate entries in the source; they are usually repeats but may differ in a detail not shown here. Equal entries are not always repeated. Hit rate of the full screen: of about 48,000 compounds, about 120 (0.25%) were called active. Not shown: some 4% with an inconclusive outcome. Calls follow the shape of the dose curve; as a rule, active = well fitted activation curve with a large enough effect; inconclusive = small, poorly fitted or top-dose-only effect, or another doubt; inactive = no such curve, though single readings can be large or run the other way. This is one part of the list.

In the case of `Clc1cccc(N2CCNCC2)c1`, the activity change, positive = activation under setting [1] was inactive: -7.49%. As for `Clc1ccc(CSC(Cn2ccnc2)c2ccc(Cl)cc2Cl)cc1` (configuration not stated), the activity change, positive = activation under setting [1] is inactive: -40%. The same measure, in the same setting: then `CC(C)=CC1C(C(=O)OCN2C(=O)C3=C(CCCC3)C2=O)C1(C)C` (configuration not stated), with inactive: -26.7%; and `Cc1ncc(CNC(=O)N(CCCl)N=O)c(N)n1`, with inactive: -6.1%. With `COc1cc(C[C@@H](C)N)c(OC)cc1C`, the activity change, positive = activation under setting [1] was inactive: -18.6% [at 116 µM].

`Cc1cccc2sc(NC(=O)c3cccn(Cc4ccccc4)c3=O)nc12`: under setting [1], the activity change, positive = activation was inactive: -12.4%. As to `O=C(CN1C(=O)CN=C(c2ccccc2)c2ccccc21)Nc1cccc(C(F)(F)F)c1`, under setting [1], the activity change, positive = activation is inactive: -28.1%. Take `CCCC1=Nc2cc(C(=O)NC3CCC(C)CC3)ccc2Sc2ccccc21` (configuration not stated): under setting [1], the activity change, positive = activation was inactive: -33.7%.

In the case of `CC(C)(O)C=CC(=O)[C@](C)(O)[C@H]1[C@H](O)C[C@]2(C)[C@@H]3CC=C4[C@@H](C=C(O)C(=O)C4(C)C)[C@]3(C)C(=O)C[C@@]12C`, the activity change, positive = activation under setting [1] is inactive: -82%. With `COc1cccc2c1[C@]13CCN(CC4CC4)[C@H](C2)[C@]1(OC)CCC(=O)C3`, the activity change, positive = activation under setting [1] was inactive: -3.73%. With `CC(C)(C)NCC(O)c1cc(Cl)c(N)c(C(F)(F)F)c1` (configuration not stated), the activity change, positive = activation under setting [1] is inactive: -4.68%. On to `Cc1cc(NC(=O)c2cccn(Cc3ccccc3)c2=O)no1`, for which, under setting [1], the activity change, positive = activation was inactive: 17.3% [at 57.5 µM, percent change from vehicle, -100% = no light].

As for `Nc1c(C(=O)Nc2cccc(Br)c2)sc2nc3c(cc12)N1CCC3CC1`, under setting [1], the activity change, positive = activation is inactive: -24.5%. On to `c1cc2ccc3cccc4ccc(c1)c2c34`, for which the activity change, positive = activation under setting [1] is inactive: 3.17% [at 116 µM, percent change from vehicle, -100% = no light].

`CCC1(c2ccccc2)CCC(=O)NC1=O` (configuration not stated): the activity change, positive = activation under setting [1] is inactive: -3.63%.

As to `C[C@@H]1CC[C@@]2(OC1)O[C@H]1C[C@H]3[C@@H]4CC=C5C[C@@H](O[C@@H]6O[C@H](CO)[C@@H](O[C@@H]7O[C@@H](C)[C@H](O)[C@@H](O)[C@@H]7O)[C@H](O)[C@@H]6O[C@@H]6O[C@@H](C)[C@H](O)[C@@H](O)[C@@H]6O)CC[C@]5(C)[C@@H]4CC[C@]3(C)[C@@H]1[C@H]2C`, the activity change, positive = activation under setting [1] is inactive: -15.4%. Turning to `Oc1ccc2c3c1O[C@H]1c4[nH]c5c(c4C[C@@]4(O)[C@@H](C2)N(CC2CC2)CC[C@]314)C[C@@]1(O)[C@H]2Cc3ccc(O)c4c3[C@@]1(CCN2CC1CC1)[C@H]5O4`, the activity change, positive = activation under setting [1] is inactive: -3.41%.

On to `COc1ccc2c3c1O[C@H]1[C@@H](O)C=C[C@H]4[C@@H](C2)N(C)CC[C@@]341`, for which the activity change, positive = activation under setting [1] was inactive: -28.5% [at 116 µM]. As to `CCCCC(CC)COC(=O)c1ccccc1C(=O)OCC(CC)CCCC` (configuration not stated), the activity change, positive = activation under setting [1] is inactive: -0.555% [at 116 µM]. On to `Oc1ccc(Cl)cc1Cc1ccccc1`, for which the activity change, positive = activation reads like this: (at 57.5 µM (top of the series)) inactive: -16.8%; (at 116 µM (top of the series)) inactive: -35.2%. For `c1ccc(N2CCNCC2)cc1`, the activity change, positive = activation under setting [1] was inactive: -3.52%. Take `CC1=C(O)C(=O)C=C2C1=CC=C1[C@@]2(C)CC[C@@]2(C)[C@@H]3C[C@](C)(C(=O)O)CC[C@]3(C)CC[C@]12C`: under setting [1], the activity change, positive = activation was inactive: -93.1%. For the compound `CCN(CC)C(=O)c1ccc(NC(=O)CCn2nc(-c3ccc(C)cc3)c3ccccc3c2=O)cc1`, under setting [1], the activity change, positive = activation was inactive: -40.6%. For the compound `Cc1cc(OCC(=O)N2CCN(CCc3ccccn3)CC2)cc(C)c1Cl`, the activity change, positive = activation under setting [1] is inactive: -4.19%. On to `Oc1cccc2cccnc12`, for which the activity change, positive = activation (at 57.5 µM (top of the series)) was inactive: -2.51% and the activity change, positive = activation (at 116 µM (top of the series)) is inactive: -34.5%. For the compound `CCOc1ccc(CN(CCc2ccc3c(c2)OCO3)Cc2cccc(C)c2)cc1`, the activity change, positive = activation under setting [1] is inactive: -22.6%. On the same count and under the same terms, then `CC(C)(O)C(Cl)(Cl)Cl`, with inactive: 2.32%; and `COc1ccc2[nH]cc(CCN(C(C)C)C(C)C)c2c1`, with inactive: -6.57% [at 116 µM]; and `CCN(CC)C(=O)c1ccc(NC(=O)CCn2nc(-c3ccc(Cl)cc3)c3ccccc3c2=O)cc1`, with inactive: 2.34% [at 11.5 µM]. Turning to `Cc1ccc(Cl)c(O)c1`, the activity change, positive = activation under setting [1] is inactive: 0.0901%. For `CN1C[C@@H](NS(=O)(=O)N(C)C)C[C@@H]2c3cccc4c3c(cn4C)C[C@H]21`, the activity change, positive = activation under setting [1] is inactive: -4.31%.

Take `COc1cc(CC(C)N)cc(OC)c1OC` (configuration not stated): the activity change, positive = activation under setting [1] was inactive: -9.64% [at 116 µM]. On the same count and under the same terms, then `COc1ccc(CN2CCN(C(=O)COc3ccccc3)CC2)c(OC)c1`, with inactive: -30.8% [at 57.5 µM, percent change from vehicle, -100% = no light]; and `Cc1cccc(C2CC(=O)Oc3c2c(=O)oc2ccccc32)c1` (configuration not stated), with inactive: -11.6%. The same measure, in the same setting: then `Cc1c(N)nc([C@H](CC(N)=O)NC[C@@H](N)C(N)=O)nc1C(=O)N[C@H](C(=O)N[C@@H](C)[C@H](O)[C@@H](C)C(=O)N[C@@H](C(=O)NCCc1nc(-c2nc(C(=O)NCCC[S+](C)C)cs2)cs1)[C@@H](C)O)C(O[C@H]1O[C@H](CO)[C@H](O)[C@@H](O)[C@@H]1O[C@H]1O[C@H](CO)[C@@H](O)[C@H](OC(N)=O)[C@H]1O)c1cnc[nH]1` (some centres not stated), with inactive: -32.3%; and `C[C@]12CC[C@H]3[C@@H](CCC4=CC(=O)CC[C@@]43C)[C@H]1CC[C@H]2OC(=O)CCC1CCCC1`, with inactive: -8.14%. With `c1cc2c(cc1[C@H]1OC[C@H]3[C@H]1CO[C@H]3c1ccc3c(c1)OCO3)OCO2`, under setting [1], the activity change, positive = activation is inactive: -18.1%. With `CCCCOC(=O)c1ccccc1C(=O)OCc1ccccc1`, under setting [1], the activity change, positive = activation is inactive: -8.17% [at 116 µM]. On to `O=C(O)CCCc1ccc(N(CCCl)CCCl)cc1`, for which the activity change, positive = activation under setting [1] is inactive: -7.41% and inactive: -12.6%.

Turning to `C#CCOC(C(=O)OCCN(C)C)(c1ccccc1)c1ccccc1`, the activity change, positive = activation under setting [1] was inactive: 1.25%. Consider `COc1cccc(C(=O)CCN[C@@H](C)[C@H](O)c2ccccc2)c1`, for which, under setting [1], the activity change, positive = activation is inactive: -7.21%.

As for `Cc1cccc(Cn2cccc(C(=O)Nc3cc(C)on3)c2=O)c1`, under setting [1], the activity change, positive = activation was inactive: -13.6%.

With `COc1ccc(C(=O)N2CCCC2=O)cc1`, under setting [1], the activity change, positive = activation was inactive: -17.1% and inactive: -6.32%. On to `COc1ccc(OC)c(CC(C)N)c1` (configuration not stated), for which the activity change, positive = activation under setting [1] is inactive: -13.7% [at 116 µM].

Consider `CN1C(=S)CN=C(c2ccccc2)c2cc(Cl)ccc21`, for which, under setting [1], the activity change, positive = activation is inactive: -11.9%.

Take `C[C@]12CC[C@@H]3[C@@H](CCC4=CC(=O)CC[C@@H]43)[C@@H]1CC[C@@H]2OC(=O)CCc1ccccc1`: under setting [1], the activity change, positive = activation is inactive: -2.75%. As to `Cc1cccc(-n2c(/C=C/c3c[nH]c4ccccc34)nc3ccccc3c2=O)c1`, under setting [1], the activity change, positive = activation is inactive: -40.3%. Turning to `CSc1ccc(CN2CCN(C(=O)COc3cccc(C)c3)CC2)cc1`, the activity change, positive = activation under setting [1] is inactive: -36.3%. Regarding `O=C1c2ccccc2C(=O)C1C(=O)C(c1ccccc1)c1ccccc1`, the activity change, positive = activation under setting [1] is inactive: -2.79% [at 57.5 µM, percent change from vehicle, -100% = no light].

In the case of `COc1ccc(-c2nc(CN3C(=O)CN=C(c4ccccc4)c4ccccc43)c(C)o2)cc1`, under setting [1], the activity change, positive = activation is inactive: -12.3%. Turning to `C[N+]1(CCF)[C@@H]2CC[C@H]1CC(OC(=O)C(O)(c1ccccc1)c1ccccc1)C2` (some centres not stated), under setting [1], the activity change, positive = activation was inactive: -4.26%. `Nc1ccncc1`: under setting [1], the activity change, positive = activation is inactive: 1.08%. In the case of `NC1(c2ccccc2)CCCCC1`, under setting [1], the activity change, positive = activation was inactive: -25.8% [at 116 µM]. Regarding `CO/C=C(/C(=O)OC)c1ccccc1Oc1cc(Oc2ccccc2C#N)ncn1`, the activity change, positive = activation under setting [1] is inactive: -47% [at 116 µM]. For `Cc1c(C(=O)Nc2cccc(C(F)(F)F)c2)cc(-c2ccccc2)n1CCCN1CCOCC1`, under setting [1], the activity change, positive = activation was inactive: -17.3%. Same read-out and setting: then `Cc1ncc2n1-c1ccc(Cl)cc1C(c1ccccc1F)=NC2`, with inactive: -16.1%; and `O=C(O)c1cc(Oc2ccc(C(F)(F)F)cc2Cl)ccc1[N+](=O)[O-]`, with inactive: -7.46% [at 57.5 µM, percent change from vehicle, -100% = no light]. Still for that read-out and setting: then `CSc1ccc(/C=C/c2nc3ccccc3c(=O)n2-c2cccc(Cl)c2C)cc1`, with inactive: -2.15% [at 57.5 µM, percent change from vehicle, -100% = no light]; and `Cc1cc(OCC(=O)N2CCN(CCc3ccncc3)CC2)ccc1Cl`, with inactive: -24.5%.

For `CC(C)=CC1C(C(=O)OCc2cccc(Oc3ccccc3)c2)C1(C)C` (configuration not stated), the activity change, positive = activation under setting [1] was inactive: 0.95%. In the case of `Cc1ccc(NC(=O)N(Cc2ccc3c(c2)OCO3)C2CCN(Cc3ccccc3)CC2)cc1C`, under setting [1], the activity change, positive = activation was inactive: -22.3%. Same read-out and setting: then `Nc1ccc(Sc2ccc(N)cc2)cc1`, with inactive: 7.83% [at 116 µM]; and `Cc1nnc2n1-c1sc(CCc3ccc(CC(C)C)cc3)cc1C(c1ccccc1Cl)=NC2C` (configuration not stated), with inactive: -33%; and `COc1ccc(-n2c(/C=C\c3ccccc3F)nc3ccccc3c2=O)c(OC)c1`, with inactive: -17%. In the case of `N#Cc1cc2c(nc1SCC(=O)Nc1ccc(C(F)(F)F)cc1)C1CCN2CC1`, the activity change, positive = activation under setting [1] is inactive: -43.1%. For the compound `CCOC(=O)NC(C)(C)Cc1ccc(Cl)cc1`, the activity change, positive = activation under setting [1] was inactive: -2.5%. With `CCN[C@@H](C)Cc1cccc(C(F)(F)F)c1`, the activity change, positive = activation under setting [1] was inactive: -8.87%. In the case of `CNC(=O)NC(O)C(Cl)(Cl)Cl` (configuration not stated), the activity change, positive = activation under setting [1] is inactive: -9.07%. Still for that read-out and setting: then `CCC(=O)OC1(c2ccccc2)CCN(C)CC1`, with inactive: 20.9% [at 116 µM]; and `COc1ccc(OC)c(C(c2c(O)c3ccccc3oc2=O)c2c(C)n(C)n(-c3ccccc3)c2=O)c1` (configuration not stated), with inactive: -7.9% [at 57.5 µM, percent change from vehicle, -100% = no light]. For `CCc1cccc(NC(=O)CN2C(=O)CN=C(c3ccccc3F)c3cc(Cl)ccc32)c1`, the activity change, positive = activation under setting [1] was inactive: -27.6%. As to `CC(C)(O)C(=O)Nc1ccc([N+](=O)[O-])c(C(F)(F)F)c1`, under setting [1], the activity change, positive = activation was inactive: -29.4%. `Cc1ccc2c(c1)C1CN(C)CCC1N2` (configuration not stated): the activity change, positive = activation under setting [1] was inactive: -13.6% [at 25.1 µM]. Consider `N#Cc1cc2c(nc1SCC(=O)Nc1ccc(Cl)c(C(F)(F)F)c1)C1CCN2CC1`, for which the activity change, positive = activation under setting [1] was inactive: -62.8%. Same read-out and setting: then `CCOC(=O)c1cncn1C(C)c1ccccc1` (configuration not stated), with inactive: -4.93%.

The values above are taken from PubChem BioAssay AID1508624 (National Center for Advancing Translational Sciences (NCATS), 2021).
